The text below walks through data of publication PMC4336329 (PLoS ONE, 2015).

About 14,000 (4.5%) of roughly 310,000 compounds showed an effect of 50% or more. The effect is printed as a negative number. This is one part of the list.
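Note: peak tail current of the secondary pulse compared with the same well before compound.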

human ether-à-go-go-related gene (hERG) potassium channel, sequence (Q12809 whole entry, looked up): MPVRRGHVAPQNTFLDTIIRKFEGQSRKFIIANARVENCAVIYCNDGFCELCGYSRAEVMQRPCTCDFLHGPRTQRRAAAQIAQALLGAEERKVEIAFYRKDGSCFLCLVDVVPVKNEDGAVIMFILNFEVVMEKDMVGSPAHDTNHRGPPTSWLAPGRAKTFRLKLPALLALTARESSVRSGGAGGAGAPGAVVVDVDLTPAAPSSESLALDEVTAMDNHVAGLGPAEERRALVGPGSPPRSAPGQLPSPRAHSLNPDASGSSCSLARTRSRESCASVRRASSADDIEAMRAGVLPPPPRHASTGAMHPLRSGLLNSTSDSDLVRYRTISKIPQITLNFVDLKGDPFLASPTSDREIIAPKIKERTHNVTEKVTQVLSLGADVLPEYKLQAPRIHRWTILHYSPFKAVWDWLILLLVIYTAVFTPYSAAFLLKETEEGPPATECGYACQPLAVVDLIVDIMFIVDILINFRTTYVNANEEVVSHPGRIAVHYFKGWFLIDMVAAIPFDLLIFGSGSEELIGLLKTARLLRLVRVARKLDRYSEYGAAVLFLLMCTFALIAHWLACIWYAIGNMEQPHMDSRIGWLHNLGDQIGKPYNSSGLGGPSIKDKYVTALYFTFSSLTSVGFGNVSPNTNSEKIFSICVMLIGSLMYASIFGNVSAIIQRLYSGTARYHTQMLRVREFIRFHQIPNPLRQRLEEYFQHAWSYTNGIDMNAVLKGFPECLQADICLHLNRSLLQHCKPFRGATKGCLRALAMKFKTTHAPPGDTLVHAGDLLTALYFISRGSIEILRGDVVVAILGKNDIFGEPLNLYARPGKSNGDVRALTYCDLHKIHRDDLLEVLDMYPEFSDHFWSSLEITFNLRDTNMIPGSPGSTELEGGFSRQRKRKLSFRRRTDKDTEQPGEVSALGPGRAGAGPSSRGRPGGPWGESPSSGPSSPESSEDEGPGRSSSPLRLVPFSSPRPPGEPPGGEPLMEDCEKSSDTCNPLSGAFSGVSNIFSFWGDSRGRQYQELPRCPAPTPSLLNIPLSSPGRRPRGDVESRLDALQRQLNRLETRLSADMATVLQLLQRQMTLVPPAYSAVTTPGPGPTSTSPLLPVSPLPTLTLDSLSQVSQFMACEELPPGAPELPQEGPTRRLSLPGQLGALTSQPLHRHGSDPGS

This assay has as its target human ether-à-go-go-related gene (hERG) potassium channel (human, UniProt Q12809). Description: primary screen, population patch clamp on CHO cells stably expressing hERG.
Take `COc1ccc(C(=O)CN2CCOCC2)cc1F.Cl`: the “hERG current change (%, negative = inhibition) at 10uM” value was determined as 13.8%. With `CCCCn1c(SCC(=O)Nc2cc(NC(=O)c3ccco3)ccc2C)nc2ccccc2c1=O` the figure was -8.62%; with `N#Cc1ccccc1OCC(=O)N1CCN(S(=O)(=O)c2ccc(Cl)cc2)CC1`, -37.1%; with `Cc1nc2ccccc2n1C(=O)N(C)C`, 30.3%. With `COc1ccc(C(=O)OCC(=O)Nc2c(C)n(C)n(-c3ccccc3)c2=O)cc1OC`, the “hERG current change (%, negative = inhibition) at 10uM” value is listed as 16.5%. With `Cc1ccc2nc(CSc3nnc(Nc4ccccc4C)s3)cc(=O)n2c1` the figure was -43%; with `COc1cc(Br)cc2cc(C(=O)N3CCOCC3)c(=O)oc12`, -2.63%; with `Cn1c(-c2ccc(Cl)cc2)cnc1N`, 5.12%. As to `Cc1onc(-c2ccccc2Cl)c1C(=O)N1CCN(c2ncccn2)CC1`, the “hERG current change (%, negative = inhibition) at 10uM” value came out at 2.45%. Take `O=C(NC1CCc2ccccc21)c1cc(COc2c(F)cccc2F)on1` (stereo not shown): the “hERG current change (%, negative = inhibition) at 10uM” value is on record as -1.25%. Turning to `CCc1c(C)nc2c(-c3ccccc3)c(-c3ccccc3)[nH]n2c1=O`, the “hERG current change (%, negative = inhibition) at 10uM” value turned out to be 15.3%. Regarding `COc1ccc(C(NC(C)=O)c2ccc3cccnc3c2O)c(OC)c1` (stereo not shown), the “hERG current change (%, negative = inhibition) at 10uM” value was -11.4%. With `O=C(CCN1CCN(Cc2ccccc2)CC1)Nc1ccc(OCc2ccccc2)cc1` the figure was -45.7%; with `COc1ccc(-c2cc3ncccc3cn2)cc1`, 1.16%; with `Br.Nc1nc2c(s1)CCc1ccccc1-2`, 20.9%. Then `N#Cc1c(-c2ccccc2)nc(-c2ccncc2)[nH]c1=O`, with -71.5%. As to `COc1ccccc1-c1cc(C(F)(F)F)nc(NCc2ccco2)n1`, the “hERG current change (%, negative = inhibition) at 10uM” value is reported as -0.674%. For the compound `CCOC(=O)Cc1c(C)nc2c(-c3ccc(Cl)cc3)c[nH]n2c1=O`, the “hERG current change (%, negative = inhibition) at 10uM” value was -8.34%. As to `COc1ccc(NC(=O)C2CCCCN2N)cc1OC` (stereo not shown), the “hERG current change (%, negative = inhibition) at 10uM” value was 10.3%.

Turning to `N#C/C(=C\C=C\c1ccccc1[N+](=O)[O-])C(=O)NC1CCCCC1`, the “hERG current change (%, negative = inhibition) at 10uM” value worked out at 0.177%. Consider `COc1cccc(-c2c(C(=O)N/N=C/c3ccsc3)nnn2-c2nonc2N)c1`, for which the “hERG current change (%, negative = inhibition) at 10uM” value was 10.6%. With `C/C(Cn1nc([N+](=O)[O-])cc1C)=N\NC(=O)COc1ccccc1[N+](=O)[O-]` the figure was -17.4%; with `CC(=O)Nc1ccc(S(=O)(=O)Nc2nc(-c3ccc(C(C)(C)C)cc3)cs2)cc1`, 9.64%; with `O=C(NCCc1ccccc1)C1CCN(S(=O)(=O)c2cccnc2)CC1`, 12.9%.

Consider `CC(C)CN(C(=O)CCNC(=O)c1ccc(Cl)cc1)c1c(N)n(CC(C)C)c(=O)[nH]c1=O`, for which the “hERG current change (%, negative = inhibition) at 10uM” value is -5.09%. With `O=C(COC(=O)/C=C/c1ccccc1Cl)NC(=O)NCc1ccccc1` the figure was 9.4%; with `CCn1c(CNc2ccc(F)cc2)nnc1SCC(=O)OC1CCCCC1`, -51.7%.

Turning to `CC1(C)CC(=O)C=C(Nc2ccc(O)c(C(=O)O)c2)C1`, the “hERG current change (%, negative = inhibition) at 10uM” value was 18.1%. For `CCn1c(SCC(=O)Nc2cc(S(=O)(=O)N3CCOCC3)ccc2OC)nnc1-c1ccncc1`, the “hERG current change (%, negative = inhibition) at 10uM” value came to 13.8%. On to `N/C(CC(=O)Nc1cc(C(F)(F)F)ccc1Cl)=N\O`, for which the “hERG current change (%, negative = inhibition) at 10uM” value stood at 1.64%. On to `CCc1c(C)c2ccc(OC(C)C(=O)NC(Cc3c[nH]c4ccc(O)cc34)C(=O)O)c(C)c2oc1=O` (stereo not shown), for which the “hERG current change (%, negative = inhibition) at 10uM” value is given as 6.81%. Regarding `CCCOc1ccc(N2C(=O)CC(N3CCN(c4nc5ccccc5s4)CC3)C2=O)cc1` (stereo not shown), the “hERG current change (%, negative = inhibition) at 10uM” value is reported as 8.46%.

For the compound `CCC(=O)Nc1nc2ccc(S(C)(=O)=O)cc2s1`, the “hERG current change (%, negative = inhibition) at 10uM” value is recorded as -1.04%. Then `O=c1c2ccccc2nc(CN2CCOCC2)n1-c1ccccc1F`, with 6.4%; and `O=C(CC(c1ccccc1)c1cc(Br)ccc1O)N1CCCCC1` (stereo not shown), with -10.8%; and `Cc1ccc2[nH]c(=O)c(CN(CC3CCCO3)C(=S)Nc3ccccc3)cc2c1` (stereo not shown), with -8.2%.

As to `CCCCC(=O)N1C/C=C\[C@H](c2ccc(OC)cc2)N(Cc2ccc(F)cc2)C(=O)[C@@H]1C`, the “hERG current change (%, negative = inhibition) at 10uM” value is -68.6%. As to `CC1CCCCN1C(=O)COC(=O)C1CCN(S(=O)(=O)c2c(Cl)cccc2Cl)CC1` (stereo not shown), the “hERG current change (%, negative = inhibition) at 10uM” value is recorded as -56.4%.

In the case of `C=CCOc1cccc(C2c3c(oc4ccccc4c3=O)C(=O)N2c2ccccn2)c1` (stereo not shown), the “hERG current change (%, negative = inhibition) at 10uM” value is recorded as -0.00012%. With `O=C(CNS(=O)(=O)c1cccc2nsnc12)NCCc1ccccc1` the figure was 3.2%; with `O=C(NNC(=S)NCc1ccc(Cl)cc1)c1cccnc1`, 14.4%; with `Cc1cc(C)c(C(=O)N2CCCC(Nc3ccc(F)cc3)C2)o1` (stereo not shown), 9.39%. On to `CCc1c(C)sc(NC(=O)/C=C/C(=O)O)c1C(N)=O`, for which the “hERG current change (%, negative = inhibition) at 10uM” value is 36.5%. With `CC(C)CCNC(=O)c1cc(-c2ccncc2)nc2ccc(S(=O)(=O)N3CCOCC3)cc12` the figure was -2.03%; with `Cc1c(C)c2c(OCC(=O)N3CCC(C(=O)O)CC3)cc3c(c2oc1=O)CCC(C)(C)O3`, 3.54%; with `COc1cccc(NC(=O)CN(C)S(=O)(=O)c2ccc3c(c2)n(C)c(=O)c(=O)n3C)c1`, 8.84%. On to `O=C(c1ccc(Br)o1)N1N=C(c2ccc(Cl)cc2)CC1c1ccco1` (stereo not shown), for which the “hERG current change (%, negative = inhibition) at 10uM” value is recorded as -3.81%. Then `COc1ccc(/C=C/C(=O)NCC(=O)N/N=C(\C)Cc2ccccc2)cc1`, with 10.2%; and `Cc1cccc(OCC(=O)NCC(C)(C)N2CCOCC2)c1`, with -3.06%. Turning to `COc1cc(CNCCN2CCOCC2)ccc1OCc1ccc(Cl)cc1.Cl`, the “hERG current change (%, negative = inhibition) at 10uM” value is listed as -42.1%.

Consider `COC(=O)Cn1c(C(F)(F)F)nc2ccccc21`, for which the “hERG current change (%, negative = inhibition) at 10uM” value came out at 20.9%.

For the compound `O=C(CSc1nnc(-c2ccco2)n1-c1ccccc1)NCC1CCCO1` (stereo not shown), the “hERG current change (%, negative = inhibition) at 10uM” value is reported as -10.1%. For `CN(C)C(CNC(=O)c1ccc(NS(=O)(=O)c2ccc(F)c(F)c2)cc1)c1ccccc1` (stereo not shown), the “hERG current change (%, negative = inhibition) at 10uM” value is listed as -12.9%.

Regarding `O=C(COc1ccc(S(=O)(=O)N2CCCC2)cc1Cl)NCc1ccc2c(c1)OCO2`, the “hERG current change (%, negative = inhibition) at 10uM” value was -0.178%.

Turning to `CC(=O)N1CCN(C(=O)CSc2cc(C)c(Br)cc2C)CC1`, the “hERG current change (%, negative = inhibition) at 10uM” value was 3.18%. Regarding `CCN(Cc1ccncc1)Cc1ccc(OC)c(OC)c1.O=C(O)C(=O)O`, the “hERG current change (%, negative = inhibition) at 10uM” value was -6.49%. Then `O=C(O)c1ccc(COc2ccccc2/C=C2\NC(=O)N(Cc3ccccc3)C2=O)cc1`, with 24.5%; and `Cc1cc2nc(C)n(CCCNC(=O)Nc3ccc(C#N)cc3)c2cc1C`, with -34%; and `CCCCN(C)CCCNC(=O)c1ccc(N2CCCC2=O)cc1`, with 9.92%. Then `Cc1ccc2c(c1)c(CC(=O)Nc1ccc(C)c(F)c1)c(C(=O)O)n2C`, with 3.81%; and `Cc1ccc(OCC(=O)Nc2ccc(N3CCOCC3)cc2)cc1`, with -5.73%. Turning to `O=C(Nc1ccc(Br)cc1Cl)N1CCOCC1`, the “hERG current change (%, negative = inhibition) at 10uM” value was 4.16%.

On to `COc1ccc(OCCCC(=O)Nc2cccc([N+](=O)[O-])c2)cc1`, for which the “hERG current change (%, negative = inhibition) at 10uM” value is given as -3.79%. In the case of `COc1ccc(NC(=O)C(C)N2C(=O)C3CC=C(Cl)CC3C2=O)cc1` (stereo not shown), the “hERG current change (%, negative = inhibition) at 10uM” value was determined as 20.4%.

In the case of `Cc1cc(NC(=O)CN2C(=O)/C(=C/c3cccc(Br)c3)SC2=S)no1`, the “hERG current change (%, negative = inhibition) at 10uM” value is reported as -2.16%. Then `O=C(c1cc(S(=O)(=O)N2CCC3(CC2)OCCO3)ccc1F)N1CCCCC1`, with -11.9%; and `O=C(NCc1cccs1)c1cc(S(=O)(=O)N2CCCCC2)ccc1Cl`, with 5.07%; and `COc1ccccc1N1CCN(C(CNS(=O)(=O)c2ccc(C)cc2)c2cccnc2)CC1` (stereo not shown), with -38.9%.

For the compound `CCOC(=O)C1=C(O)C(=O)N(c2ccc(S(N)(=O)=O)cc2)C1c1ccc(Cl)cc1` (stereo not shown), the “hERG current change (%, negative = inhibition) at 10uM” value was 0.263%. For the compound `COc1ccc(/C=N/Nc2nnc(Cc3ccccc3)c(=O)[nH]2)cc1`, the “hERG current change (%, negative = inhibition) at 10uM” value was -15.1%. In the case of `N#Cc1ccc(Cl)cc1NC(=O)COC(=O)c1ccc2c(c1)OCCO2`, the “hERG current change (%, negative = inhibition) at 10uM” value is given as 2.9%.

As for `N#C/C(=C\c1ccc([N+](=O)[O-])cc1)c1nc(C2CC2)cs1`, the “hERG current change (%, negative = inhibition) at 10uM” value came out at 4.29%. `Cc1cccc(OCC(O)Cn2c(N3CCCCC3)nc3c2c(=O)n(C)c(=O)n3C)c1` (stereo not shown): the “hERG current change (%, negative = inhibition) at 10uM” value is -13.7%. With `c1coc(Cn2c(SCc3nc4ccccc4[nH]3)nnc2-c2cccs2)c1` the figure was -28%. Consider `CN(c1ccccc1)S(=O)(=O)c1cccc(NC(=O)CSc2n[nH]c(N)n2)c1`, for which the “hERG current change (%, negative = inhibition) at 10uM” value is given as 13.1%.

As for `COc1ccc(Cl)cc1N1C(=N)SCC1=O`, the “hERG current change (%, negative = inhibition) at 10uM” value is 38.5%. Then `Cc1ccc(S(=O)(=O)N2CCN(C(=O)COC(=O)c3cnc(C)cn3)CC2)c(C)c1`, with 14.7%; and `O=C(CN(c1ccccc1)S(=O)(=O)c1ccccc1)NCCSCc1ccco1`, with -12.6%. `O=C1N(Cc2cccnc2)C[C@@H]2C[C@@H](c3cccc(OCc4ccccc4)c3)N3CCC[C@@]123`: the “hERG current change (%, negative = inhibition) at 10uM” value is on record as -63.6%. Then `Clc1ccc(Nc2ccc3ccccc3n2)cc1`, with 18.3%; and `CSCCC(NC(=O)C1CCC(C)CC1)C(=O)NCc1ccco1` (stereo not shown), with -17.5%. Turning to `Cc1onc(-c2c(Cl)cccc2Cl)c1C(=O)N/N=C(\N)COc1ccc(Cl)cc1`, the “hERG current change (%, negative = inhibition) at 10uM” value is on record as -45.7%. On to `COc1cc(C2NC(=O)NC(C)=C2C(=O)OC2CCC(C)CC2)ccc1O` (stereo not shown), for which the “hERG current change (%, negative = inhibition) at 10uM” value was 13%. `COc1ccccc1N(CC(=O)NC1CCCCC1)C(=O)CCC(=O)Nc1ccccn1`: the “hERG current change (%, negative = inhibition) at 10uM” value is -3.39%. With `Cc1ccc(C)c2[nH]c(=O)c(CN(Cc3ccco3)S(=O)(=O)c3ccc4c(c3)OCCO4)cc12` the figure was 9.44%.
